The campaign covered roughly 390,000 compounds. About 17,000 (4.4%) were called active. This list was built around the results that the source calls inconclusive (neither active nor inactive); the mix of calls is not that of the screen. Calls follow the shape of the dose curve; as a rule, active = well fitted inhibition curve with a large enough effect; inconclusive = small, poorly fitted or top-dose-only effect; inactive = no such curve, though single readings can be large or run the other way. Potencies beside an inconclusive call are fits to weak or partial responses and may not hold up.
Biological target: Lysine-specific demethylase 4A (Homo sapiens) (UniProt O75164)
Experiment: qHTS Assay for Inhibitors of JMJD2A-Tudor Domain; also: nearly all actives have a fitted effect of over 50% in size
Settings: AlphaScreen JMJD2A-Tudor / H3K4me3 peptide binding; series mostly up to 114 µM
Potency is read from the fitted curve at half-maximal effect; tags tell the direction and shape of the fitted curve.

Sequence of UniProt O75164 (O75164 whole entry, looked up, the tested form may be a part): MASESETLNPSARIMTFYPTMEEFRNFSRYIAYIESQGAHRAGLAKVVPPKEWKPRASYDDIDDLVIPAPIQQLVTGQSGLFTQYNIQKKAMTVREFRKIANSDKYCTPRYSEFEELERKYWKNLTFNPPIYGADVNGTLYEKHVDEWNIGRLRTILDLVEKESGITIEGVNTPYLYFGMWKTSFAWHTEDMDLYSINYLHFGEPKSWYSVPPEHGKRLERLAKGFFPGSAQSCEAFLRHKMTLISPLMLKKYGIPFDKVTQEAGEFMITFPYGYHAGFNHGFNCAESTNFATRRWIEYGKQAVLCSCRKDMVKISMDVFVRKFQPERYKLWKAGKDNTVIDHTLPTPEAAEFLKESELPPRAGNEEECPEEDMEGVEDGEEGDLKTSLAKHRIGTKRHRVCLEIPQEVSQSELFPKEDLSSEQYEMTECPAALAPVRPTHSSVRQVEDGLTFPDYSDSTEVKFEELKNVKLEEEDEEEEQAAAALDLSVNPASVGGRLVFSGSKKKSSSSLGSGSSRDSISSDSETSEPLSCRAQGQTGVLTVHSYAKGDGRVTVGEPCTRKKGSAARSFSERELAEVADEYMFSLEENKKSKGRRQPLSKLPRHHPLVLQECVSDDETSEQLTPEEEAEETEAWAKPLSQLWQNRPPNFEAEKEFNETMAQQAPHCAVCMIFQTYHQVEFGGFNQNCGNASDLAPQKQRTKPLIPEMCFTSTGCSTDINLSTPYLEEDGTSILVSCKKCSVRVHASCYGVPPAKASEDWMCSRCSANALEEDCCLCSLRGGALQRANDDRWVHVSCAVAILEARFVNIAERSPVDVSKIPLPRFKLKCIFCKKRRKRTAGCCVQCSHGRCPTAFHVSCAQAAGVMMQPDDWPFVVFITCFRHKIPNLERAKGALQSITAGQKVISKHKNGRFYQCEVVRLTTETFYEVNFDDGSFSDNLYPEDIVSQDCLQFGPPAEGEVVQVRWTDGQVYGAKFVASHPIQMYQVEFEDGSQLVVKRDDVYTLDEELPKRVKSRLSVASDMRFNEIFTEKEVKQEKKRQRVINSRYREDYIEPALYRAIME

SMILES	Potency
COc1cc(/C=C(/C(=O)c2cccs2)c2nc3ccccc3[nH]2)ccc1O	inconclusive: 39.8 µM [inhibitor, partial curve]
O=C(Oc1c(-c2ccccc2)c(=O)n2c3c(cccc13)CC2)c1cccc([N+](=O)[O-])c1	inconclusive: 50.1 µM [inhibitor, partial curve]
C/C(=N\NC(=S)Nc1ccccc1C)c1ccc(O)cc1	inconclusive: 44.7 µM [inhibitor, partial curve]
Cc1ccc(S(=O)(=O)c2c(C)nn(C(C)(C)C)c2OC(=O)C(C)C)cc1	inactive
Cc1ccc2nc(-c3ccccc3)c(CN3CCSCC3)n2c1	inconclusive: 79.4 µM [inhibitor, partial curve]
C/C(=N\Nc1cccc(C(=O)O)c1)c1ccc(Cl)s1	inconclusive: 56.2 µM [inhibitor, partial curve, poor fit]
CCOc1ccc(N/C(C)=C/C(=O)c2ccc3c(c2)OCCO3)cc1	inconclusive: 39.8 µM [inhibitor, partial curve]
CSc1ncccc1C(=O)OCC(=O)Nc1ccc(N2CCOCC2)cc1	inactive
Cc1ccc2c(=O)cc(C(=O)Nc3c(C)n(C)n(-c4ccccc4)c3=O)oc2c1	inactive
Brc1ccccc1-n1nnc(-c2ccnc3ccccc23)n1	inconclusive: 56.2 µM [inhibitor, partial curve]
Cc1ccc(CNC(=O)C(=O)NCC(c2ccc3c(c2)OCO3)N2CCOCC2)cc1 (stereo not given)	inactive
CCSc1nc(-c2cccs2)nc2ccccc12	inconclusive: 31.6 µM [inhibitor, single point]
O=C1c2ccccc2C(=O)c2c1cccc2N1CCN(C/C=C/c2ccccc2)CC1	inconclusive: 2.51 µM [inhibitor, full curve]
COc1cc(NC(=O)CSc2nc3nc(C)c(Cc4ccccc4Cl)c(C)n3n2)cc(OC)c1	inconclusive: 50.1 µM [inhibitor, partial curve]
COc1ccccc1N1CCN(C(=O)C2CCCN(S(=O)(=O)c3ccc4c(c3)CCCN4C(C)=O)C2)CC1 (stereo not given)	inconclusive: 17.8 µM [inhibitor, full curve, poor fit]
O=C1OC(Nc2nccs2)c2ccccc21 (stereo not given)	inconclusive: 50.1 µM [inhibitor, partial curve]
CCCCCCSc1ccc(-c2nc3ccc(Cl)cn3c2NC2CCCCC2)cc1	inconclusive: 89.1 µM [inhibitor, single point]
COc1cc(/C=C2/C(=O)NN(c3ccc(Cl)cc3)C2=O)cc(Br)c1O	active: 39.8 µM
NC(=S)NN=C1CCSCC1	inconclusive: 1.58 µM [inhibitor, partial curve, poor fit]
C1=C(c2ccco2)N2CCN=C2S1	inactive
COc1ccc(-c2nnc(C3CCN(S(=O)(=O)c4cccc(Cl)c4)CC3)o2)cc1	inconclusive: 2.51 µM [inhibitor, partial curve, poor fit]
COc1ccc(CNC(=O)CCS(=O)(=O)c2ccc(Br)cc2)cc1	inconclusive: 56.2 µM [inhibitor, partial curve, poor fit]
COc1cc(-c2nc(SCC(=O)Nc3ccc4c(c3)OCO4)c(-c3ccccc3)[nH]2)cc(OC)c1OC	inconclusive: 14.1 µM [inhibitor, full curve]
O=C1/C(=C/c2cccc(Br)c2)SC(=S)N1CCC(=O)N(CCO)c1ccccc1	active: 31.6 µM

SMILES	Potency
Oc1cc(NCc2ccc(F)cc2)cc2cccnc12	inactive
Cc1[nH]c2ccc(C(=O)O)cc2c1C	inactive
c1ccc(CN2CCC(N=C3NN=C(c4ccc5c(c4)OCCO5)CS3)CC2)cc1	inconclusive: 31.6 µM [inhibitor, partial curve]
Brc1ccc(CSc2nccn2-c2ccccc2)cc1	active: 56.2 µM
Oc1ccc(/C=N/Nc2nc(-c3ccc(Cl)cc3)cc(C(F)(F)F)n2)cc1	inconclusive: 39.8 µM [inhibitor, partial curve]
O=C1CC(=C(c2ccccc2)c2ccccc2)C(=O)N1CCN1CCN(c2cccc(Cl)c2)CC1	inconclusive: 50.1 µM [inhibitor, partial curve]
Cc1cccc2sc(N(CCCN(C)C)C(=O)CCc3ccccc3)nc12	inconclusive: 15.8 µM [inhibitor, full curve, poor fit]
COC(=O)Cn1c(N)[n+](Cc2ccccc2)c2ccccc21	inactive
Cc1c(N2C(=O)/C(=C\c3cccc4ccccc34)SC2=S)c(=O)n(-c2ccccc2)n1C	inconclusive: 7.08 µM [inhibitor, full curve, poor fit]
COc1ccc(N2CC(C(=O)N[C@@H](C)C(=O)N[C@H](CO)c3ccccc3)CC2=O)cc1 (stereo not given in full)	inactive
COc1cccc2c1C(=O)c1c(O)c3c(c(O)c1C2=O)C[C@@](O)(C(=O)CO)C[C@@H]3O[C@H]1C[C@H](N)[C@@H](O)[C@H](C)O1	inconclusive: 50.1 µM [inhibitor, partial curve]
CC(C)CC(=O)NCC(c1ccc2c(c1)OCO2)N1CCN(c2ccccc2)CC1 (stereo not given)	inactive
Cc1cc(NCCCn2ccnc2)n2ncc(-c3ccccc3)c2n1	inconclusive: 79.4 µM [inhibitor, partial curve]
COc1ccc(-c2[nH]nc3nc(-c4cc(Br)ccc4OC)cc(C(=O)O)c23)cc1	inactive
N#Cc1nc(COc2ccc(Cl)cc2)oc1N1CCCC1	inconclusive: 44.7 µM [inhibitor, partial curve]
COc1ccc(N/C=C(\C#N)c2ccc(OCCCF)cc2)cc1	inconclusive: 56.2 µM [inhibitor, partial curve]
COc1ccc(NC(=O)c2ccco2)cc1NC(=O)c1cc(Cl)ccc1OC	inactive
COc1ccc(C(=O)OCC(=O)N2CCc3ccccc3C2)cc1OC	inactive
CC(C)(C)c1ccc(O)c(N=Cc2cc3c(cc2[N+](=O)[O-])OCO3)c1	inconclusive: 10 µM [inhibitor, full curve]
Cc1ccc(Cl)c(NC(=O)CN(C)CC(=O)Nc2ccc(F)c(F)c2F)c1Cl	active: 70.8 µM
CCc1ccc(CNC(=O)C2CCCN(c3nnc(C)c4c(C)n(-c5ccccc5)nc34)C2)cc1 (stereo not given)	inconclusive: 70.8 µM [inhibitor, partial curve]
COc1ccccc1C(=O)N/C(=C\c1cn(S(=O)(=O)N(C)C)c2ccccc12)C(=O)NCCCn1ccnc1	inconclusive: 50.1 µM [inhibitor, partial curve]
c1ccc(NNC2=NCCS2)cc1	active: 3.98 µM
Cc1c(C(=O)Nc2ccccc2[N+](=O)[O-])csc1-c1ccccc1	inconclusive: 11.2 µM [inhibitor, partial curve]

SMILES	Potency
COc1ccccc1C(=O)Nc1nc2n(n1)C(c1ccc(F)cc1)C=C(c1ccc(Cl)cc1)N2 (stereo not given)	inactive
Cc1cc(NC(=O)CCN2C(=O)/C(=C\c3ccccc3Cl)SC2=S)no1	inactive
COc1ccccc1NC(=O)C1=C(C)Nc2nc(SC)nn2C1c1ccccc1Cl (stereo not given)	inactive
Cc1ccc2cc3c(N)c4c(C)ccc(C)c4nc3nc2c1	inconclusive: 39.8 µM [inhibitor, partial curve]
C[C@@H]1CN([C@H](C)CO)C(=O)c2cc(NC(=O)c3ccncc3)ccc2O[C@@H]1CN(C)C(=O)Nc1ccccc1	active: 50.1 µM
CCCCN(C(=O)C1CCC(CNS(=O)(=O)c2cccc3nsnc23)CC1)c1ccccc1 (stereo not given)	inconclusive: 20 µM [inhibitor, full curve]
CN(c1ccccc1)c1nc(N)c([N+](=O)[O-])c(N2CCCC2)n1	inconclusive: 39.8 µM [inhibitor, partial curve]
C=CCO/N=C/C1=C(O)C(C(=O)OC)C(C)(C)CC1=O (stereo not given)	active: 79.4 µM
Cc1ccc(C(=O)N/N=C/c2nc3ccccc3n2C)cc1	active: 63.1 µM
CN(Cc1ccccc1)C(=O)c1[nH]cnc1C(=O)NCCCCCNC(=O)OC(C)(C)C	inconclusive: 79.4 µM [inhibitor, single point]
Cc1c(N=C2C=C(Br)C(=O)C(Br)=C2)c(=O)n(-c2ccccc2)n1C	active: 56.2 µM
Oc1[nH]c2ccccc2c1C1=NCCCC1	inconclusive: 63.1 µM [inhibitor, partial curve, poor fit]
O=C(NCCc1ccccc1)N1c2ccccc2Sc2ccccc21	inconclusive: 79.4 µM [inhibitor, partial curve]
Cc1cc(C)c(C)c(S(=O)(=O)N2CCC(C(=O)NCCCN3CCOCC3)CC2)c1C	inactive
O=c1c2cc3c(cc2nc2sc(Nc4cccc([N+](=O)[O-])c4)nn12)OCO3	inactive
Oc1ccc(/C=N/n2c(C3CCCCC3)n[nH]c2=S)c(O)c1	active: 14.1 µM
Cc1cc(C)c(S(=O)(=O)Nc2nnc(C)s2)c(C)c1	inconclusive: 3.16 µM [inhibitor, partial curve]
COc1ccc(C2NCCc3c2[nH]c2ccccc32)cc1CSc1nc2ccccc2s1 (stereo not given)	active: 25.1 µM
CCC1C(C#N)=C(SCC(N)=O)NC2=C1C(=O)CC(C)(C)C2 (stereo not given)	active: 70.8 µM
O=C(N/N=C/c1ccc([N+](=O)[O-])cc1)c1cnccn1	inconclusive: 89.1 µM [inhibitor, single point]
COc1cc2c(cc1NCc1ccc3c(c1)OCO3)oc1ccccc12	inconclusive: 50.1 µM [inhibitor, partial curve]
CSC1=NC(=O)/C(=C\c2cccc3ccccc23)S1	inconclusive: 28.2 µM [inhibitor, partial curve]
